{
  "source": "paper PMC4336329",
  "about": "(PLoS ONE, 2015)",
  "note": "Out of some 310,000 compounds screened, about 14,000 (4.5%) showed an effect of 50% or more. Effects have a minus sign here. The list shows a part of the results.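 Further: peak tail current of the secondary pulse compared with the same well before compound.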",
  "data": [
    {"molecular_target": "human ether-à-go-go-related gene (hERG) potassium channel (human, UniProt Q12809)", "sequence (Q12809 whole entry, looked up)": "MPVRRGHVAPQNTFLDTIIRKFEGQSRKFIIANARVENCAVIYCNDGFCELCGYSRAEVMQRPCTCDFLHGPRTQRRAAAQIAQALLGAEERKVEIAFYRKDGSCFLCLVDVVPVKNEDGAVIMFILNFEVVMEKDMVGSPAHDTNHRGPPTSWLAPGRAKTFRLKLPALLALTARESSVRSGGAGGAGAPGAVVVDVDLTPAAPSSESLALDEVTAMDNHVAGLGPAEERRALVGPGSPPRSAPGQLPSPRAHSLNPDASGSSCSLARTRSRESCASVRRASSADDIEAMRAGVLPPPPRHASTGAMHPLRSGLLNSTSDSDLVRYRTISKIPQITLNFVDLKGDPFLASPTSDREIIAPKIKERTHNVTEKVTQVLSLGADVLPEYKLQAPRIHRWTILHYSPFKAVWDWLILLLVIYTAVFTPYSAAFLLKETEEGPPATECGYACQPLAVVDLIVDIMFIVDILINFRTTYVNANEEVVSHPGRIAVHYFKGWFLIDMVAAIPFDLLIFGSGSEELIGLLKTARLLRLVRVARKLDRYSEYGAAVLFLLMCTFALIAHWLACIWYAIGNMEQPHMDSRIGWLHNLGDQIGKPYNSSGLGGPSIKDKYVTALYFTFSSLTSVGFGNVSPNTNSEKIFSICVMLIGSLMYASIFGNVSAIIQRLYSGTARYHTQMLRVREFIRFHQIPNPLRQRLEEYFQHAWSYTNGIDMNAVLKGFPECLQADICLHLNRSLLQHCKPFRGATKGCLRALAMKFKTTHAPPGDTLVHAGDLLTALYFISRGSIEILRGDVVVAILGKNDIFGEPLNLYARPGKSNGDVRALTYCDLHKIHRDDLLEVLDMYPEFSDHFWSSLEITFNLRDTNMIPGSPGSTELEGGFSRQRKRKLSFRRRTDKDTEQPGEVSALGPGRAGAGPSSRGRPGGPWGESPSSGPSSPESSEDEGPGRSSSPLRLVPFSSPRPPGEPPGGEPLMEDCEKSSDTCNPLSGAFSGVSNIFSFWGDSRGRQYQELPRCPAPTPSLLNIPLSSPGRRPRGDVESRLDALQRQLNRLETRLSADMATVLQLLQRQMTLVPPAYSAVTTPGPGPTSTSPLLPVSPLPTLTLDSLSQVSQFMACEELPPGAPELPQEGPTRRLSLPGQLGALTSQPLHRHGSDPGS", "assay": "primary screen, population patch clamp on CHO cells stably expressing hERG", "units": {"hERG current change (%, negative = inhibition) at 10uM": "%"}, "values": [
      {"smiles": "COc1cc(C)c(Br)cc1S(=O)(=O)N1CCOCC1", "hERG current change (%, negative = inhibition) at 10uM": 10.1},
      {"smiles": "COc1ccccc1NC(=O)/C(C#N)=C/c1cccn1C", "hERG current change (%, negative = inhibition) at 10uM": -4.87},
      {"smiles": "Cc1cccc(NC(=O)COc2coc(CN3CCc4ccccc4C3)cc2=O)c1", "hERG current change (%, negative = inhibition) at 10uM": -8.19},
      {"smiles": "Cc1ccc(NC(=O)C(C)NS(=O)(=O)c2ccc(F)cc2)cc1C", "note": "(centres unmarked)", "hERG current change (%, negative = inhibition) at 10uM": 5.74},
      {"smiles": "CCOC(=O)CCC(NC(=O)CCCC(=O)NC(CCC(=O)OCC)C(=O)OCC)C(=O)OCC", "note": "(centres unmarked)", "hERG current change (%, negative = inhibition) at 10uM": 12.5},
      {"smiles": "CC(C)C(=O)Nc1nc(-c2ccc(S(=O)(=O)N3CCOCC3)cc2)cs1", "hERG current change (%, negative = inhibition) at 10uM": 9.7},
      {"smiles": "FC(F)(F)c1ccccc1-n1c(-c2ccco2)n[nH]c1=S", "hERG current change (%, negative = inhibition) at 10uM": 20.5},
      {"smiles": "O=C(CC(=O)Nc1ccc(Cl)cc1Cl)Nc1ccc(Cl)cc1Cl", "hERG current change (%, negative = inhibition) at 10uM": 23.2},
      {"smiles": "O=[N+]([O-])c1ccccc1S(=O)(=O)NC1CC2CCC1C2", "note": "(centres unmarked)", "hERG current change (%, negative = inhibition) at 10uM": -3.7},
      {"smiles": "CC1CCCCN1Cc1nc2ccccc2c(=O)[nH]1", "note": "(centres unmarked)", "hERG current change (%, negative = inhibition) at 10uM": 3.85},
      {"smiles": "CC(C)c1ccccc1OCCNS(C)(=O)=O", "hERG current change (%, negative = inhibition) at 10uM": -2.89},
      {"smiles": "O=C(c1ccccc1)N1CCN(C(=S)NCc2ccco2)CC1", "hERG current change (%, negative = inhibition) at 10uM": -15.9},
      {"smiles": "Cc1cccc(C)c1-n1c(C)nn(CC#N)c1=O", "hERG current change (%, negative = inhibition) at 10uM": 19.1},
      {"smiles": "CCn1cc(C(=O)NCC(OC)OC)c(=O)c2cc(S(=O)(=O)N3CCC(C)CC3)ccc21", "hERG current change (%, negative = inhibition) at 10uM": -28.8},
      {"smiles": "COCCNC(=S)N1CCOCC1", "hERG current change (%, negative = inhibition) at 10uM": 6.9},
      {"smiles": "COc1cc(-c2nc3ccccn3c2/N=C/c2cc(OC)c(OC)c(OC)c2)ccc1O", "hERG current change (%, negative = inhibition) at 10uM": -28.6},
      {"smiles": "CCOC(=O)N1CCN(c2cc3[nH]c(=S)[nH]c3cc2F)CC1", "hERG current change (%, negative = inhibition) at 10uM": 9.95},
      {"smiles": "Cc1ccc(C(=O)N2CCOCC2)cc1S(=O)(=O)N1CCCC1", "hERG current change (%, negative = inhibition) at 10uM": 12.7},
      {"smiles": "CCOCC(=O)OCC(=O)Nc1cc(OC)c([N+](=O)[O-])cc1C", "hERG current change (%, negative = inhibition) at 10uM": 4.01},
      {"smiles": "COC(=O)CN1C(c2ccc(Cl)cc2)=Nc2ccc(Cl)cc2C1c1ccccc1", "note": "(centres unmarked)", "hERG current change (%, negative = inhibition) at 10uM": -17.7},
      {"smiles": "CCOC(=O)Cn1cnc2sc(C(=O)OC)c(C)c2c1=O", "hERG current change (%, negative = inhibition) at 10uM": 11.1},
      {"smiles": "O=C(C1CC(=O)N(c2ccc(Cl)cc2)C1)N1CCOCC1", "note": "(centres unmarked)", "hERG current change (%, negative = inhibition) at 10uM": -0.293},
      {"smiles": "C/C(=N\\S(=O)(=O)c1ccc(C)cc1)N1CCN(S(=O)(=O)c2ccccc2)C1C(C)C", "note": "(centres unmarked)", "hERG current change (%, negative = inhibition) at 10uM": -23.6},
      {"smiles": "CC(C)(C)OC(=O)N1CCC(c2cc(=O)n3[nH]c(-c4ccc(Cl)cc4)cc3n2)CC1", "hERG current change (%, negative = inhibition) at 10uM": -0.197},
      {"smiles": "CCCCOC(=O)Nc1nc(CC(=O)OCC)cs1", "hERG current change (%, negative = inhibition) at 10uM": -25.9},
      {"smiles": "O=C(C1CCC1)N1CCc2cc(S(=O)(=O)NCCN3CCN(c4ccccc4F)CC3)ccc21", "hERG current change (%, negative = inhibition) at 10uM": -11.7},
      {"smiles": "C=CCn1c(O)c(C(C)=NCc2cccnc2)c(=O)[nH]c1=O", "hERG current change (%, negative = inhibition) at 10uM": -3.23},
      {"smiles": "CCN1CCN(c2nc3ccccc3nc2C(C#N)S(=O)(=O)c2ccc(C)c(C)c2)CC1", "note": "(centres unmarked)", "hERG current change (%, negative = inhibition) at 10uM": -25.4},
      {"smiles": "CS(=O)(=O)N(CC(=O)NCc1ccncc1)c1cc(Cl)cc(Cl)c1", "hERG current change (%, negative = inhibition) at 10uM": -32},
      {"smiles": "O=C(/C=C/c1ccc(Cl)cc1Cl)Nc1ccncc1", "hERG current change (%, negative = inhibition) at 10uM": 11},
      {"smiles": "COc1ccc(OCC(O)CNS(=O)(=O)c2ccc(C)cc2)cc1", "note": "(centres unmarked)", "hERG current change (%, negative = inhibition) at 10uM": 1.43},
      {"smiles": "c1ccc(-c2ccc(CN3C[C@@H]4C(c5ccccc5)C5(c6ccccc6)CC4(C5)[C@H]3c3ccccc3)cc2)cc1", "note": "(some centres unmarked)", "hERG current change (%, negative = inhibition) at 10uM": -5.02},
      {"smiles": "O=C(NC1CCCC1)C(c1ccncc1)N(C(=O)Cc1cccs1)c1ccccc1", "note": "(centres unmarked)", "hERG current change (%, negative = inhibition) at 10uM": -1.29},
      {"smiles": "CCOc1ccc(Br)cc1S(=O)(=O)Nc1ccc(Cl)c(S(=O)(=O)N(C)C)c1", "hERG current change (%, negative = inhibition) at 10uM": 2.27},
      {"smiles": "COc1ccc(/C=C2/NC(=O)N(CC(=O)Nc3cccc(C)c3)C2=O)cc1O", "hERG current change (%, negative = inhibition) at 10uM": -14.8},
      {"smiles": "COc1ccc(C(=O)OCC(=O)NC2CCCC2)c(OC)c1", "hERG current change (%, negative = inhibition) at 10uM": 16.1},
      {"smiles": "Cc1ccnc2nc(C(=O)NCc3ccccc3)nn12", "hERG current change (%, negative = inhibition) at 10uM": 13.1},
      {"smiles": "Cc1[nH]n(-c2ccccc2)c(=O)c1/C=N/N(C)c1ccccc1", "hERG current change (%, negative = inhibition) at 10uM": -7.26},
      {"smiles": "COc1ccc(-c2csc3ncn(-c4cccc(C)c4)c(=O)c23)cc1OC", "hERG current change (%, negative = inhibition) at 10uM": -19.6},
      {"smiles": "Cc1ccnc(NS(=O)(=O)c2ccc(N3C(=O)c4c(Cl)c(Cl)c(Cl)c(Cl)c4C3=O)cc2)n1", "hERG current change (%, negative = inhibition) at 10uM": 0.778},
      {"smiles": "O=C(c1ccncc1)N1CCN(CCc2ccccc2)CC1", "hERG current change (%, negative = inhibition) at 10uM": -50.8},
      {"smiles": "COc1ccc(S(=O)(=O)N(C)CC(=O)N2CCCC2)cc1Cl", "hERG current change (%, negative = inhibition) at 10uM": 19.6},
      {"smiles": "CN(C)[C@@H]1C(=O)C(C(N)=O)=C(O)[C@@]2(O)C(=O)C3=C(O)c4c(O)ccc(Cl)c4[C@@H](O)[C@H]3C[C@@H]12.Cl", "hERG current change (%, negative = inhibition) at 10uM": -18.4},
      {"smiles": "COc1ccc(N2CCN(CCCn3c(=S)[nH]c4ncccc4c3=O)CC2)cc1", "hERG current change (%, negative = inhibition) at 10uM": -30.7}
    ]}
  ]
}
